This passage reports self-cleavage results from the RNAGym collection of RNA variant scans (doi:10.7554/elife.90254).

B1: LINE1-mini (parent)
chain: GGCAGAGCUCAACACAGCGUGGCAAAGUGGCUGUGGCUAGACUGCC

The source gives no read counts; variants with many changes may rest on few reads.

In the series the parent is B1. The series can be described thus: self-cleavage, relative activity (ratio to wild type); higher = more cleavage; in vitro, sequencing; the parent is a self-cleaving ribozyme.
C10G C37A U38A: the self-cleavage was found to be 0.

C15A G19U A24G G40U: the self-cleavage was found to be 0.02.

Regarding G2A C37U A41C, the self-cleavage was 0.08.

Take C3A A4U C46U: the self-cleavage worked out at 0.35.

In the case of G5U C10G C31A, the self-cleavage was 0.06.

For the variant C18A G27U C31A U38A C42U, the self-cleavage was determined as 0.07.

On to C8A A24U G44C, for which the self-cleavage was 0.09.

For A4G C15U G19C G21U A25C G27U G29U A41U U43A, the self-cleavage worked out at 0.11.

Turning to A12U A14U G36C C37A C42G, the self-cleavage was determined as 0.11.

On to A16G U32A A39U, for which the self-cleavage worked out at 0.01.

Regarding U20C C31U U32G G36C, the self-cleavage worked out at 0.13.

As to U20C G21U A24U, the self-cleavage turned out to be 0.55.

Regarding G1C U9A C10A C13U G35A, the self-cleavage came out at 0.01.

Take G19A G33U G40U: the self-cleavage is 0.1.

In the case of G2U A12C A16G C23G, the self-cleavage turned out to be 0.01.

As to C15A A25C G36U, the self-cleavage was 0.02.

Turning to C10G G21C G27A, the self-cleavage was 0.03.

For C18U U20C A41G, the self-cleavage turned out to be 0.2.

Take A11C C15U G22A C31A: the self-cleavage came to 0.

A6G A14G G22A: the self-cleavage stood at 0.61.

Turning to G2C G7U A11G U20C A41G C46A, the self-cleavage was 0.07.

Regarding G1A A4U A12C, the self-cleavage turned out to be 0.13.

For the variant C13A U28G G33A, the self-cleavage came to 0.04.

Take G7U G17A U28C: the self-cleavage stood at 0.02.

Consider C18G G29A U32G G40A, for which the self-cleavage amounted to 0.11.

For the variant U9A U34G C45A, the self-cleavage was determined as 0.1.

Turning to C3U C10G C23A U34A, the self-cleavage was 0.04.

For U9G C10U G21U, the self-cleavage came out at 0.06.

On to A4G G22A A26G C37G, for which the self-cleavage worked out at 0.02.

In the case of G21A G29C G36U G40U C45U, the self-cleavage was 0.16.

As to A11U G36A G40A, the self-cleavage amounted to 0.01.

With G5C A6G G22C G29A G30C, the self-cleavage was 0.04.

As for G2A G5U U9G, the self-cleavage is 0.27.

As for G1U C10U U38A, the self-cleavage came out at 0.

For A4U C23U G44C, the self-cleavage was found to be 0.14.

As to A25U G35C C37U, the self-cleavage is 0.03.

Regarding G2C C3A A6G U9C G36U C45U, the self-cleavage was found to be 0.14.

On to C13U G21A G29U C37G, for which the self-cleavage amounted to 0.01.

Regarding U9C C10U G33U C37A, the self-cleavage turned out to be 0.04.

On to G1U A25G U34C G36C, for which the self-cleavage is 0.

Regarding C3A A4G C13G A16C, the self-cleavage stood at 0.04.

Regarding G17U G33A G36C A41U, the self-cleavage turned out to be 0.2.

With G5U A12G U32G G44A, the self-cleavage worked out at 0.05.

For G1A U9G C18G A41U G44U, the self-cleavage was 0.17.

Take G1U C8A U38A A39C: the self-cleavage is 0.06.

For the variant A4U A14G G27U G33U, the self-cleavage was 0.05.

On to G2U G5A G19A C42A, for which the self-cleavage came out at 0.08.

As to A4U G5A A11G, the self-cleavage was 0.

In the case of C3A C8G G36A, the self-cleavage amounted to 0.03.

On to G2C C10A C23G C46A, for which the self-cleavage is 0.01.

As to A12C A14U G27C, the self-cleavage stood at 0.01.

With A25C G29U U34A C37G, the self-cleavage was 0.02.

A24G G35A G40C: the self-cleavage stood at 0.09.

Consider G22U G27C A39U, for which the self-cleavage was determined as 1.22.

Turning to C13A C15G C23A U38A G40A C45G, the self-cleavage was 0.01.

In the case of C15A G19U G40U, the self-cleavage came out at 0.04.

A11U A16G G29A: the self-cleavage amounted to 0.02.

For the variant A12G G27U C42U, the self-cleavage is 0.13.

As for G2U G19U G27C G40C, the self-cleavage is 0.01.

With A4C G7C C8A U20C, the self-cleavage came to 0.04.

With G2U C10G G17U C31U G44A, the self-cleavage was determined as 0.01.

In the case of G5A A11U A25U G30A C46A, the self-cleavage came to 0.03.

For A14U A24G G40U C45A C46U, the self-cleavage worked out at 0.05.

Consider A6U A11G A16C C18U G22A G30A C31G G35U, for which the self-cleavage was determined as 0.01.

Regarding G2C C3A U9G A39U, the self-cleavage was determined as 0.08.

U20C G27U G29C: the self-cleavage came out at 0.18.

Take G27A A39C C42A: the self-cleavage turned out to be 0.04.

Take G5A G7A G36C G44A: the self-cleavage stood at 0.25.

For A4G C18A A39G, the self-cleavage was 0.01.

As for U9G G19U C31G G35A A39U, the self-cleavage was found to be 0.03.

As to G19U U32C G36A C46A, the self-cleavage was determined as 0.01.

Turning to C3U G17C G22U A24G A25U, the self-cleavage was found to be 0.21.

For G7U C15U U32G C37G, the self-cleavage was 0.19.

Turning to A4U A26G G35A, the self-cleavage came out at 0.01.

In the case of G2A A26U G30A A39C, the self-cleavage stood at 0.25.

Regarding G1U A6U C18U, the self-cleavage is 0.08.

As to G5C C8A A14G G29C U34A G44C, the self-cleavage was 0.24.

Regarding A16U C31U U38C, the self-cleavage came to 0.

Consider C10A A12C G33C G44U, for which the self-cleavage amounted to 0.

As to A4G G5U A6G G7A U28C, the self-cleavage came to 0.1.

Turning to G1U C18G G27C U38C, the self-cleavage stood at 0.02.

As to G5U A14G G19U G27U, the self-cleavage was found to be 0.13.

In the case of A4C A25C U32C, the self-cleavage came out at 0.07.

In the case of G19A C23G C31A C45U, the self-cleavage was found to be 0.27.

G21U A41U U43A G44U: the self-cleavage was 0.04.

As for G5C A26G G29A G36U, the self-cleavage was 0.01.

For the variant G5A G33A A39C, the self-cleavage was 0.08.

Regarding A12G A14C A41C G44A, the self-cleavage worked out at 0.04.

For the variant G2U C3A G17C U38G G40U, the self-cleavage turned out to be 0.13.

On to A6U G33C C37A, for which the self-cleavage stood at 0.02.

In the case of G2U A12U C46A, the self-cleavage turned out to be 0.

C8G C10A A11C G29U C46G: the self-cleavage came out at 0.02.

Turning to G7C C13A A25C U43A, the self-cleavage was determined as 0.05.

Consider C3A C31U G36C, for which the self-cleavage turned out to be 0.09.

Regarding C18G A26C G33A C46G, the self-cleavage was found to be 0.03.

For the variant G7A U9A A11U A14G C46G, the self-cleavage was found to be 0.03.

Take C8G C23G A24U: the self-cleavage was determined as 0.

Take U9A A14U U38A C42A: the self-cleavage turned out to be 0.19.

Consider C10G U20A G29A G30C U38C C46G, for which the self-cleavage was 0.

Turning to C23A G27U G33U C45A, the self-cleavage stood at 0.02.

G7U G36C G40A: the self-cleavage turned out to be 0.

As to G5A A14G C15G U28C A41G, the self-cleavage was 0.

On to A12U G29C C31U, for which the self-cleavage turned out to be 0.2.

With C8A G40A C42U, the self-cleavage came to 0.06.

As for A25U G33U C46U, the self-cleavage worked out at 0.05.

As for A4C A26C A39G, the self-cleavage turned out to be 0.04.

Turning to U34C G35U U38A, the self-cleavage was found to be 0.07.

On to A4U U32G G44U C46G, for which the self-cleavage came out at 0.07.

G17U G21U A25U: the self-cleavage was found to be 0.13.

Regarding G5U G17A C42U, the self-cleavage was 0.04.

Turning to A14C C15A C18A, the self-cleavage turned out to be 0.06.

Turning to C8A A25C C31A C42G, the self-cleavage stood at 0.38.

As for G30C U38G G40A U43A, the self-cleavage worked out at 0.12.

Take G27A U38C G40C C46A: the self-cleavage is 0.09.

In the case of A6G G21A G29A C45U, the self-cleavage is 0.11.

G7U G35U C42A: the self-cleavage amounted to 0.09.

In the case of G2C G22C A26C A41G, the self-cleavage is 0.02.

For the variant G5C G30U U32C, the self-cleavage was 0.03.

Turning to A11C C15A G27C G44U, the self-cleavage was found to be 0.02.

Take C13A A24U U32G G35A G40C: the self-cleavage was 0.03.

In the case of G5A C18U G27U, the self-cleavage is 0.

Take G21A U32A G35A U43C: the self-cleavage stood at 0.04.

Take G2A C13G G19A: the self-cleavage was found to be 0.09.

Take A4G G7U C15U A41U: the self-cleavage is 0.42.

Consider A6C C10A A11C G30U G44U C45U, for which the self-cleavage was found to be 0.

In the case of A12G G19U U20G, the self-cleavage was found to be 0.01.

For the variant C3U A12U G19C A41C, the self-cleavage was determined as 0.05.

Consider C10A C15A A41G, for which the self-cleavage was 0.04.

As to G21C A24U U28G G29U G44A, the self-cleavage is 0.01.

For C10A G29A C46G, the self-cleavage was determined as 0.02.

As for U20C G36A U38A, the self-cleavage was determined as 0.

For G7C C8U G22U C37A, the self-cleavage was 0.07.

On to G33A G44C C46G, for which the self-cleavage worked out at 0.06.

Take A6G C8G A11U U20C G21A A24C G30A C37A: the self-cleavage turned out to be 0.02.

C31A C37G U38A: the self-cleavage was 0.04.

For the variant A16G G21A G29U G44A, the self-cleavage stood at 0.26.

As for G22A A24C G40U, the self-cleavage worked out at 0.5.

As to C10U C15A A25U G27U G29C, the self-cleavage worked out at 0.03.

For C23U U28G G44A, the self-cleavage turned out to be 0.05.

With C3U A16C G22C, the self-cleavage came to 0.01.

In the case of C3A A12G A16C, the self-cleavage was 0.01.

On to G5A G7A G17U G19C G33U U38C, for which the self-cleavage came to 0.02.

Consider A6C A11C U38G, for which the self-cleavage stood at 0.

In the case of G7A G29U A39G G44U, the self-cleavage came out at 0.11.

As for C18G A25G U32C, the self-cleavage turned out to be 0.02.

For G5C G19U U38A C42A G44A, the self-cleavage came out at 0.01.

C3U C8U C23A C42U: the self-cleavage came to 0.53.

On to G2A G22U G33C C42U C45A, for which the self-cleavage turned out to be 0.1.

As to A26C C31U G44A, the self-cleavage is 0.07.

Regarding A4G G22A G40A C45G, the self-cleavage was found to be 0.02.

In the case of C18A G36A C37G, the self-cleavage was determined as 0.07.

On to G5A A6G U20C C31A G35C, for which the self-cleavage was 0.01.

As to U9C A12G A14C G22C C23A G30A C31U, the self-cleavage amounted to 0.01.

For G1U C15G A25C G36U, the self-cleavage worked out at 0.

As to G17C G29U C37A, the self-cleavage came out at 0.04.

As for A14U C31U G35U, the self-cleavage came out at 0.07.

Consider A12C A14U C18A U28G G44U, for which the self-cleavage was determined as 0.

For the variant A11G A12C U34G, the self-cleavage came out at 0.01.

On to C8G A12G G33C C42U, for which the self-cleavage was determined as 0.03.

For the variant G1A G2U G21U U38A C45A, the self-cleavage turned out to be 0.17.

As for G2A C23A G33A C42U, the self-cleavage was determined as 0.18.

Regarding G1A G19C G30A C31U A39C, the self-cleavage is 0.04.

For A6C C23G C31G G35U, the self-cleavage came out at 0.05.

Regarding C13G A25C G40A, the self-cleavage was found to be 0.02.

For C8A A11U G27A, the self-cleavage came to 0.03.

With C13U U32G U34A, the self-cleavage was found to be 0.02.

On to G7C C8G C10A C45U C46U, for which the self-cleavage stood at 0.05.
